# PubChem BioAssay AID1345082 (National Center for Advancing Translational Sciences (NCATS), 2018)
# “And” between values parts separate entries of the source, which are not always exact repeats. Equal entries are not always repeated. About 4,000 (4.3%) of roughly 94,000 compounds were called active. This list was built around the results that the source calls inconclusive (neither active nor inactive); the mix of calls is not that of the screen. The call rests on the fitted dose curve; in most records, active means well fitted inhibition curve with a large enough effect; inconclusive means small, poorly fitted or top-dose-only effect; inactive means no such curve, though single readings can be large or run the other way. Where the call is inconclusive, the potency comes from a doubtful curve fit.
# Assay: Cytotoxic Profiling in NIH 3T3 Cell Line of Diverse Libraries Using Quantitative High-Throughput Screening; further: nearly all actives have a fitted effect of over 55% in size
# Conditions: NIH 3T3 viability, CellTiter-Glo ATP luminescence, 48-72 h; activity change, negative = cytotoxicity: at 96.7 µM (top of the series); series mostly up to 96.7 µM
# Summary of the method: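 Cells were seeded at 400 per well, treated with pin-transferred compound, and kept 48 or 72 hr at 37 °C before CellTiter-Glo addition and luminescence imaging of cellular ATP.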
# On the % scale 0 is the no-effect control and ±100 the full control effect; potency means the concentration at half of the fitted maximal effect; tags describe the fitted curve by direction and shape.
Compound,"activity change, negative = cytotoxicity",Potency,outcome
CN1Cc2ncnc(N3CCN(Cc4ccccc4)CC3)c2CN(C2CCC2)C1=O,inactive: -22.6%,–,–
CC(=O)NC1(C)CN(Cc2ccc(-c3cccc(F)c3)nc2)C1,inactive: -18.9% [at 138 µM],–,–
NC(=O)[C@@H](Cc1ccccc1)NC(=O)[C@@H]1C[C@@H](NS(=O)(=O)c2cccs2)CCN1C(=O)CSCC(=O)O,inactive: -16.6%,–,–
O=C(NCC1CN(C(=O)Cc2cccc(OC(F)(F)F)c2)CC12CN(c1ccccc1)C2)Nc1ccccc1 (stereo unspecified),–,"inconclusive: 25.1 µM [inhibitor, full curve]",–
O=C(Cc1ccccc1F)N1CCC2(CC1)CN(C1CCC1)CC2CO (stereo unspecified),–,"inconclusive: 70.8 µM [inhibitor, single point]",–
CCc1cnc(N)nc1N1CCC(Oc2ccc(F)cc2)CC1,–,"inconclusive: 50.1 µM [inhibitor, partial curve, poor fit]",–
Cc1nnc(-c2cc(C(=O)Nc3cccnc3)ccn2)n1CCc1ccccc1,–,"inconclusive: 50.1 µM [inhibitor, partial curve, poor fit]",–
Cc1ccccc1NC(=O)N1CCC(N2CCCC(C(=O)N3CCCC3)C2)CC1 (stereo unspecified),inactive: -8.27%,–,–
COc1ccc2nc([C@H]3CCN(Cc4cccc(C#N)c4)C3)[nH]c2c1,–,active: 31.6 µM,–
O=C1[C@@H]2C[C@@H](CN2Cc2cccc(Cl)c2)Oc2ccccc2N1CC1CC1,–,"inconclusive: 56.2 µM [inhibitor, partial curve, poor fit]",–
CC1CCN(CC2CCCN(C(=O)c3cccc(F)c3)CC2)CC1 (stereo unspecified),inactive: -5.89%,–,–
COc1cccc(Nc2cnc3ccc(-c4ccc(OC)c(OC)c4)nn23)c1,–,active: 22.4 µM,–
Cc1oc2ccn(Cc3ccc(F)cc3)c(=O)c2c1C(=O)NC1CC1,–,"inconclusive: 35.5 µM [inhibitor, partial curve]",–
CC(NC(=O)OCc1ccccc1)c1nc2cccnc2n1C1CCCC1 (stereo unspecified),–,"inconclusive: 50.1 µM [inhibitor, partial curve, poor fit]",–
CCOc1ccc2c(n1)CCN(C(=O)c1ccco1)C2,inactive: -3.99%,–,–
CC(C)C(=O)N1CCCC1Cc1noc(-c2ccccc2)n1 (stereo unspecified),inactive: -26.3%,–,–
Cc1ccc(-c2noc([C@@H]3C[C@H](NS(=O)(=O)c4ccc(F)cc4)CN3C)n2)cc1,–,"inconclusive: 44.7 µM [inhibitor, partial curve, poor fit]",–
Cc1ccc(CN2C[C@H](O)C[C@H]2c2nc(-c3ccc(F)cc3)no2)cc1,–,"inconclusive: 112 µM [inhibitor, partial curve, poor fit]",–
CCCCOc1ccc(C(=O)N2CCC[C@H]2c2nc(-c3ccc(OC)c(OC)c3)no2)cc1,–,"inconclusive: 50.1 µM [inhibitor, partial curve, poor fit]",–
O=C(C1CCCN([S+](=O)([O-])c2cccs2)C1)N1CCCC(c2nc3ncccc3[nH]2)C1 (stereo unspecified),–,"inconclusive: 50.1 µM [inhibitor, single point]",–
COc1ccc(CNC(=O)C[C@@H]2CCNC[C@@H]2Cc2cc(-c3ccccc3)on2)cc1OC,inactive: -22.4%,–,–
CCC(=O)N(C1CCOCC1)C1CCN(Cc2cccc(Cl)c2)CC1,inactive: -14.4%,–,–

Compound,"activity change, negative = cytotoxicity",Potency,outcome
CC(C(=O)N1CCCC1)N1C(=O)COc2ccc(C(=O)COc3ccc(Cl)cc3)cc21 (stereo unspecified),–,"inconclusive: 50.1 µM [inhibitor, partial curve, poor fit]",–
COc1ccc(CCc2nc3nccc(-c4ccc(OC)c(OC)c4)n3n2)cc1,–,"inconclusive: 44.7 µM [inhibitor, partial curve, poor fit]",–
COC(=O)N1CCC(c2nn(-c3ccc(Cl)cc3)c(=O)[nH]2)CC1,inactive: -12% [at 138 µM],–,–
COc1ccc2c(c1)nc1n2[C@@H](CNCc2ccc3c(c2)OCO3)COC1,–,"inconclusive: 63.1 µM [inhibitor, full curve]",–
COc1ccc(C(=O)N2CCc3ccc(C(=O)NCc4ccccn4)cc32)cc1,–,"inconclusive: 44.7 µM [inhibitor, partial curve, poor fit]",–
COc1cccc(-c2cn3cc(C(=O)NC4CCCCCC4)nc3s2)c1,–,"inconclusive: 44.7 µM [inhibitor, partial curve, poor fit]",–
COc1ccc(NC(=O)O[C@@H]2CO[C@H]3[C@@H]2OC[C@@H]3NC(=S)Nc2cccc3ccccc23)cc1,inactive: -30.5%,–,–
Cc1ccc(C2Cn3nnc(C(=O)N4CCN(C(=O)c5cccc(N(C)C)c5)CC4)c3CO2)cc1 (stereo unspecified),inactive: -19.4%,–,–
O=C1N(Cc2cccc(F)c2F)CCCC1(O)CN1CCCCC1 (stereo unspecified),inactive: 2.59%,–,–
CC(C)CCNC(=O)C1CCc2sc(C(=O)N3CCCCC3)cc2C1 (stereo unspecified),–,"inconclusive: 50.1 µM [inhibitor, partial curve, poor fit]",–
Cc1ccc(OCc2nc(C3CCN(S(=O)(=O)Cc4ccccc4F)C3)no2)cc1 (stereo unspecified),–,"inconclusive: 50.1 µM [inhibitor, partial curve, poor fit]",–
O=C(NCCc1ccccc1)C1CCN(c2ccnc3ccnn23)CC1,–,"inconclusive: 44.7 µM [inhibitor, partial curve]",–
N#Cc1cccc(-c2cn3c(n2)N(C(=O)COc2ccccc2)CCC3)c1,–,"inconclusive: 50.1 µM [inhibitor, partial curve, poor fit]",–
O=C(NC1CC1)c1ccc2nnc(-c3ccc(OC(F)(F)F)cc3)n2c1,inactive: -18%,–,–
Cc1ccc(CN2CCN(C(=O)C3CCCN(C(=O)c4ccccc4)CCC(=O)NCC3)CC2)cc1 (stereo unspecified),inactive: -10.8%,–,–
CC(C)OCCCNc1ncnc2c1CN(C1CCCC1)C(=O)CN2C,inactive: -27%,–,–
COc1ccccc1-c1ccc2c(C(=O)NCc3cccc(Cl)c3)nn(C)c2n1,inactive: -14.8%,–,–
CC(Cn1cncn1)NCc1cc(=O)c2cc(F)ccc2[nH]1 (stereo unspecified),inactive: -0.42%,–,–
CC[C@H]1CN(C(=O)c2ccnc(Cl)c2)CC[C@H]1CC(=O)NCc1ccc2c(c1)OCO2,–,"inconclusive: 35.5 µM [inhibitor, full curve, poor fit]",–
CCOC(=O)C1CCCN(C(=O)c2cc(-c3ccccc3OC)c3nncn3n2)C1 (stereo unspecified),inactive: -22.6%,–,–
O=C(NCC(F)(F)F)c1cc(C2CC2)nc2onc(C3CCNC3)c12 (stereo unspecified),inactive: -13.5%,–,–
CCc1ccc(S(=O)(=O)c2nnn3c2nc(N2CCCCC2)c2ccccc23)cc1,–,"inconclusive: 6.31 µM [inhibitor, partial curve, poor fit]",–

Compound,"activity change, negative = cytotoxicity",Potency,outcome
COCc1ccc2c(c1)c(OC(C)(C)C(=O)NCCc1ccccn1)nn2Cc1ccccc1,–,"inconclusive: 44.7 µM [inhibitor, partial curve, poor fit]",–
Cc1ccc(-c2cc(C(=O)NCc3cccc(F)c3)nn3cnnc23)cc1,–,"inconclusive: 50.1 µM [inhibitor, partial curve, poor fit]",–
C=CCOc1cc(C)c2c(c1C)[C@H](O)C([C@H](C)C(=O)N(C)Cc1ccccc1)CC2 (stereo partly specified),–,active: 70.8 µM,–
CC1=NOC2(CCCN(C(=O)c3ccccc3)C2)C1 (stereo unspecified),inactive: -4.33% [at 174 µM],–,–
N#Cc1cccc(-c2cn3cc(C(=O)NCc4ccccc4)nc3s2)c1,–,"inconclusive: 79.4 µM [inhibitor, partial curve, poor fit]",–
COCCNC(=O)[C@H]1C[C@H](Oc2cccnc2)CN1C(=O)NCc1ccc(OC)cc1,–,–,inactive
Fc1ccc(-c2cnc([C@@H]3COCCN3Cc3c[nH]c4ccccc34)[nH]2)c(F)c1,–,"inconclusive: 89.1 µM [inhibitor, partial curve]",–
COc1ccc(C(=O)N[C@H]2CCOC[C@H]2C2CCOCC2)cc1O,inactive: -13%,–,–
O=C(c1ccc(F)cc1)N1C[C@@H](CO)[C@H](c2nc(C3CC3)no2)C1,inactive: -6.87%,–,–
CC(C)NC(=O)N[C@H]1C[C@@H](Cc2cc(-c3ccccc3)on2)C1(C)C,–,"inconclusive: 44.7 µM [inhibitor, partial curve, poor fit]",–
CC(=O)Nc1ccc(CN2CCC3(CC2)COc2ccccc2C(=O)N3)cc1,inactive: 2.84%,–,–
O=C(NC1CCCC1)c1nc2cccnc2n(CCc2ccccc2)c1=O,–,"inconclusive: 70.8 µM [inhibitor, single point]",–
COc1ccccc1-c1ccc(CN2CCCCC2C(=O)NC2CCCCC2)cc1 (stereo unspecified),–,"active: 44.7 µM and inconclusive: 50.1 µM [inhibitor, partial curve, poor fit]",–
CC(C)N1CCN(C(=O)CN2C(=O)C(Oc3ccc(F)cc3)C23CCCCC3)CC1 (stereo unspecified),inactive: -34.3%,–,–
O=[S+]([O-])(c1ccccc1)N1CC2(CCCCN2CC2CC2)Cc2ccccc21 (stereo unspecified),–,"inconclusive: 50.1 µM [inhibitor, partial curve, poor fit]",–
Cc1cc(NC(=O)c2ccc3c(c2)OCCN(CCC(F)(F)F)C3)ccc1F,–,"inconclusive: 25.1 µM [inhibitor, full curve]",–
C=CCN(C)C(=O)[C@@H](C)C1CC[C@@]2(C)Cc3sc(CSc4ccccc4)nc3[C@@H](C)[C@@H]2[C@H]1O (stereo partly specified),inactive: -33.7%,–,–
Cc1nn(-c2ccc(F)cc2)c(Oc2cccc(F)c2)c1CCC(=O)N(C)C(C)C,–,"inconclusive: 50.1 µM [inhibitor, partial curve, poor fit]",–
CNC(=O)[C@H]1C[C@]2(CCCCN(CCO)C2=O)N(C(C)=O)[C@H]1c1ccccc1,–,"inconclusive: 56.2 µM [inhibitor, partial curve, poor fit]",–
COc1ccccc1-c1cccc(CN2CCCC(C(=O)Nc3ccccc3Cl)C2)c1 (stereo unspecified),–,"inconclusive: 50.1 µM [inhibitor, partial curve, poor fit]",–
Cc1ccc(OC2(C(=O)N[C@H]3CCc4ccccc43)CCNCC2)cc1,–,"inconclusive: 39.8 µM [inhibitor, full curve, poor fit]",–
COc1ccc(-c2ccc(C(=O)N3CCC(NC(=O)c4cccc(Cl)c4)CC3)cc2)nn1,–,"inconclusive: 50.1 µM [inhibitor, partial curve, poor fit]",–
